We go through 63 sequences from the BET-seq Pho4 binding data (Le et al. 2018).

Some of the results follow. These are noisy estimates, calculated here from bound and input reads.

This assay concerns the target T1, Pho4 (S. cerevisiae) (UniProt P07270).
T1 sequence: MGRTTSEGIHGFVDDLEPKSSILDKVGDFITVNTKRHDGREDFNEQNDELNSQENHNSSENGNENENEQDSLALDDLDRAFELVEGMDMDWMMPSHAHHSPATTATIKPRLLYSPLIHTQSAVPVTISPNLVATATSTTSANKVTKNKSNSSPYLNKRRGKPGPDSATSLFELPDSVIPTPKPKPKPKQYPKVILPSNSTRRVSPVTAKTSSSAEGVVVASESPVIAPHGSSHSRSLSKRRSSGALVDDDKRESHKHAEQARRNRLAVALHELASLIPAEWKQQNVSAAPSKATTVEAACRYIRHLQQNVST
Put plainly: relative binding free energy (BET-seq); higher = weaker binding. To be noted: reference: library average.
Consider GCGCTCACGTGTGGGA, for which the “relative binding free energy” value worked out at 0.31 kcal/mol. The same measure for ATGGCCACGTGGCAGG: -0.15 kcal/mol. In the case of CGTCGCACGTGTGGAG, the “relative binding free energy” value is -0.09 kcal/mol.

Take AAATGCACGTGAAATG: the “relative binding free energy” value is 0.37 kcal/mol. With GTTGTCACGTGAAAGG the figure was 0.28 kcal/mol. With GTGTTCACGTGGACTT the figure was 0.32 kcal/mol; with GATGACACGTGGTCTT, 0.08 kcal/mol; with AGAGGCACGTGGGTCA, -0.2 kcal/mol. With CTTGACACGTGGTGCA the figure was -0.01 kcal/mol. Turning to AGTGGCACGTGCGGTG, the “relative binding free energy” value is -0.1 kcal/mol. The same measure for AGAGGCACGTGGTTTT: -0.22 kcal/mol. With GGGTACACGTGTCGTA the figure was 0.19 kcal/mol; with ATGTTCACGTGGGGAC, 0.17 kcal/mol.

In the case of GAATTCACGTGGTGGG, the “relative binding free energy” value was found to be 0.29 kcal/mol. With TTTGACACGTGGTTGA, the “relative binding free energy” value is -0.07 kcal/mol. The same measure for TGGGACACGTGTCGGC: 0.16 kcal/mol; for ATCTTCACGTGTTGTC: 0.36 kcal/mol; for AATTGCACGTGGTGTG: -0.05 kcal/mol. The same measure for TTTGTCACGTGGAACG: 0.1 kcal/mol; for GTAATCACGTGAGTTT: 0.45 kcal/mol; for TGTTGCACGTGTGCAG: 0.06 kcal/mol. For the sequence ATAAGCACGTGAGATG, the “relative binding free energy” value is 0.26 kcal/mol.

Consider TTTTGCACGTGTCTGG, for which the “relative binding free energy” value was 0.06 kcal/mol. With GTATACACGTGAATGT the figure was 0.13 kcal/mol; with AACTACACGTGGGGGG, -0.09 kcal/mol. The same measure for AATTGCACGTGGTGAT: -0.04 kcal/mol; for TCTATCACGTGGAGTT: 0.08 kcal/mol; for GTGGACACGTGGGTGT: -0.04 kcal/mol. The same measure for TGGGGCACGTGTAGGT: -0.03 kcal/mol. With GGCGGCACGTGTTGAT, the “relative binding free energy” value is -0.04 kcal/mol.

With AGTGGCACGTGGCTGG, the “relative binding free energy” value was -0.18 kcal/mol. With TGTTGCACGTGGTGGC the figure was -0.06 kcal/mol. ATTTCCACGTGTTGTT: the “relative binding free energy” value is 0.05 kcal/mol. In the case of CTTTGCACGTGGTAAA, the “relative binding free energy” value is -0.04 kcal/mol. The same measure for ACGTGCACGTGGTAGG: -0.1 kcal/mol; for TATAGCACGTGAGTTT: 0.04 kcal/mol. With TCTTGCACGTGGTGAG, the “relative binding free energy” value was -0.2 kcal/mol.

In the case of GGTCACACGTGAGAGG, the “relative binding free energy” value worked out at 0.28 kcal/mol. The same measure for TGGACCACGTGTTATG: 0.02 kcal/mol; for TAGAACACGTGGTTGG: -0.02 kcal/mol. With TTTAGCACGTGGGCTC the figure was -0.09 kcal/mol.

On to TGTGCCACGTGGCATG, for which the “relative binding free energy” value is -0.19 kcal/mol. With GGGTACACGTGGATTT the figure was 0.26 kcal/mol.

In the case of TTTACCACGTGTAATG, the “relative binding free energy” value is -0.02 kcal/mol. The same measure for GTGGTCACGTGGTGTA: 0.04 kcal/mol; for GGTAGCACGTGTTGTA: -0.11 kcal/mol; for AATTGCACGTGTTGCT: -0.05 kcal/mol. With GAGATCACGTGAAGGG the figure was 0.39 kcal/mol; with GTTCGCACGTGAAGGT, 0.26 kcal/mol; with CTGTACACGTGTGGTA, 0.06 kcal/mol. GGGTACACGTGATAAG: the “relative binding free energy” value was 0.2 kcal/mol. The same measure for TAAGTCACGTGCAGGT: -0.04 kcal/mol; for TATGGCACGTGAGGGT: 0.03 kcal/mol. The same measure for AGGCGCACGTGTCTGG: 0.03 kcal/mol; for AGTGTCACGTGGTATT: 0.12 kcal/mol. The same measure for TGTGTCACGTGCCAGT: -0.09 kcal/mol; for ATGGGCACGTGCGGGT: -0.26 kcal/mol; for GGATTCACGTGTGGTT: 0.34 kcal/mol.

With TAACGCACGTGTTGGT, the “relative binding free energy” value is -0.08 kcal/mol. With TGATACACGTGGGCGG the figure was -0.12 kcal/mol. With AGTATCACGTGGGCGG the figure was 0.04 kcal/mol. As for GTTAACACGTGTGGGG, the “relative binding free energy” value is 0.08 kcal/mol.

For the sequence CTGGGCACGTGAGCTG, the “relative binding free energy” value worked out at 0.09 kcal/mol.
